According to the RNAGym collection of RNA variant scans (doi:10.7554/elife.90254):
Read counts are not given, so values of variants with three or more changes are uncertain.

B1: OR4K15 (parent)
chain: GUUAACGGUCAUAGGCCAUGGAAACUAGGAGCACCAUUUCGCUGCCAGUGAAGAAAUGAACAAAGAAAAUCUGGGCCAGGCAGGCAUCAAAAGAAAUAGUCUUGCGCUCAACCAGAAAGUCUGUAAUCAUUUUAAGGGUA

Variants of: B1
Assay: self-cleavage, relative activity (ratio to wild type); higher = more cleavage; in vitro, sequencing; the parent is a self-cleaving ribozyme

Variant | self-cleavage
A4G A24G U43C A51G A89G | 1.38
A4G A5G A23G A67G | 0.46
A5C A22G U26C A51G U102C A116G U122C A126G | 1.15
A4G U38C A68G U87C A118U | 1.03
A5G G14A A22G A91G A92G | 0.31
A5G U38A A51G A95G A111G | 0.05
A5G U12C U103C | 1.74
A5C A92G U102C U127C | 0.36
A4G A22U A95U | 1.74
A5G U19C U43A | 1.15
A5G U43C A64G C112A | 0.05
A5G A24G A30G A66G C113U | 0.28
A5G U12C A27U A52G U100C U139A | 1.29
A5C U38C A56G A69G U87C U127C | 0.45
A5C A23G A59G A62G A91G A94G A96G | 0.35
A4G A47G A52C A55G G83A | 0.64
A5G U19C U70C | 1.33
A5G U57C A116G | 0.33
A5G A78G U132C U139C | 0.29
A5G G7U U37A A114U | 0.46
A5G U43C A95G G104A | 0.12
A5C A62G U131C | 1.52
A4G A30U U103C A110G U130A | 0.07
A5G U38C A98G | 1.28

Variant | self-cleavage
A5G U57C A63G A118G U127C A129G | 0.12
A5G C105U U124C | 0.12
A5G A23G A110U A111G | 0.05
U3C U43C A60G | 1.61
A5G U19C A22G A33G U87C A111G | 0.08
A5G G29A U39C A47G U49C | 1.06
A5G C46U A126G | 1.15
A4G A51U A52C | 1.29
A5G U12C G41A A60G | 0.98
A5C C10U A62G A94G U103C | 0.43
A5G A60G C61A A63U U127C | 1.3
A5G A118G U132C | 0.71
A5G A22G A114G A126G | 0.24
A5G A13G U103C G136A | 0.21
A4G U39C U49C A67U | 1.05
A5C A27C U39A A64G U97C | 1.14
A5G U38C U43G A55U A117G | 1.58
A5G A36U A47U A86G | 0.29
A5C A22G A82G | 0.54
A4G A24G U43C A51G U72A | 0.29
A5G U19C A54G | 0.77
A5G U72C A94G U139C | 0.07
A5G U19A U97A C121U | 1.27
A4G A60G A94G | 1.3

Variant | self-cleavage
A5G A96G U97C | 1.06
A4G A30G A63G C121U | 1.83
A5G U38C G58A A94G A98G | 0.5
A5C A51U A89G A117G A125U | 1.45
A4G U26C A116G | 1.21
A4G A94U U102C | 1.41
A5G U26C U43C | 0.67
A5G U37C A55G C76U G137U | 0.25
A5G A56G A118C U120G | 0.29
A5G A52G A68U A111G | 0.18
A4G U103C A135G A140G | 1.52
A5C G7A U37C A51G A110U G136A | 1.04
A5G A59G A64G A86G | 0.5
A5G U38C U39C A60G G79U G119A | 0.13
A5G A118G U131C | 0.34
A5G A82U A96G U100C U131C | 0.24
A4G U43A A91G U103C A110G U130C | 0.02
A5C A24U A51U | 0.5
A5G U37C A51G A82G A135G | 0.52
A5G A30U U37C A135U | 0.88
A5G A36G C113U | 0.18
A5G A33G U72A A90U A96G | 0.41
A4G C6U U12C A51G A59G U103C | 1.14
A4G A68G A69G A91U U133C | 1.82

Variant | self-cleavage
A4G A56G A59G A66G A111U A125G U127C | 0.03
A5G A67G U97C U127C | 0.05
A4G A92G A126G | 1.08
A5G U19A A63G | 0.89
A5G A52G U57C A67G | 1.31
A4G A51G A96G U108A A129C | 0.1
A4C A23G U37C | 1.64
U3C U70C A95G | 2.69
A5G A13U A54G C105U | 0.24
A5G A22G A59U | 0.94
A5C A33G A56G A82U | 0.07
A4G A51G A82G | 0.32
A5G G28A C40A U131C | 1.47
A4G A62G A117U U122C | 0.3
A5G A33G A60G A91G | 0.66
A4G A24C A47U U108C | 0.24
A5G U9A A13G U100A | 1.5
A4U A62U C101U | 0.71
A5G A30G U122C | 1.34
A5G G21A A92G | 1.24
A5G U43C A55G A69G U72A | 0.22
A5G A33G A67C U103C U127C | 0.81
A5G U38C A64G A68G U108C | 0.09
A5G C10U U72A A111U | 0.12

Variant | self-cleavage
A5G A47C A129U | 1.12
U3G A4G A27G | 0.54
A5G A54G U102A | 0.42
U3C U49C A96U | 1.2
A5G A69G A78G A94G U132C | 0.17
A4G A66G U122C | 0.84
A4G A94G A114G | 1.21
A5G A67G A94G A117G | 0.55
A5C A33G U49C | 1.29
A4G U39C A56G A66G U122C | 1.3
A5G A55G U72C U124C | 0.21
A5G A33G A68G A94G U124A | 0.76
A5G A117G U130C | 0.67
A5G A23G A51G A69G A94G U100C U130C | 0.89
A5G A11G G20U A111G | 0.08
A5G A69U A96U | 1.04
A4G A5U A22G A96G A116G | 0.92
A5G A78U A94G | 0.73
A5G A23G A56G A68G U87C A135U | 0.83
A5G A52U A68G A96G A118G A125G | 0.16
A5C A55G A62G A67G U102A A117C | 0.15
A5G A86G A89U U139A | 1.07
A5G C76U U108C | 0.08
A5G A24G A55G U70C U132C | 0.7

Variant | self-cleavage
A5G C16U U19C U39A G44A U72C U87C | 0.3
A4G A13U U57A A95U | 0.47
U3G U26C U102C | 1.52
A4G U108A U131C | 0.05
A5G G20A A82U | 0.11
A4G U39C A47G | 1.17
A4G A23C A47G A55C A56G A60G A63U A66C A117G | 0
A5C A47G U131C | 1.71
A4G A30G A60G A78U A86C A114G A129G | 0.06
A5G U43C U102C | 1.83
A5G G21A A23G G28A A60G A78C | 0.51
A5G A68G A90U A95G U120A | 2.08
A5C G29A U43A A64U A118G U127C U132C A140G | 0.28
A4G U9C A22G A59G | 1.86
A5G A66U U124G | 0.66
A5G C107U U130C | 0
A5G A98G A116U | 0.06
A5G C77U A140G | 1.22
A4G U9C A54U A89G A96G U124C | 0.55
A5G U38C A111G | 0.04
A5G A60G A95G U122A | 0.54
A4U A82G U120A U139C | 0.5
A5G U9C U87A A94G | 0.8
A5G U43A A54G | 1.12

Variant | self-cleavage
A5G A51G A59G G80A A98G U108G A110G A114G U132C | 0
A5G A30G U43C A95G A96G U103C U127C | 0.73
A4G A78G A96U A134G | 0.39
A4G A67G A94G | 0.94
A5G A86U A111G | 0.09
A5G U9C A51U G53U | 1.44
A5G A23G A90G U130C | 0.36
A5G G15U A60G | 1.18
A5G A30G U103C | 1.43
A5G A23G A36G U120A | 1.3
A4G A110C A116G | 0.23
A5G G28A A68G U102C | 2.31
U3C U43A A68G A91G | 1.5
A4U A52U A55U | 0.53
U3C U70A G137A | 1.76
A4G G53A U127C | 1
U3C U108A A118G | 0.02
A5G U37C A116G | 1.38
A5G A60G A69G | 0.92
A5G A98C G138A | 0.58
A4G A60G A89G | 1.24
A5G A59G G83A | 1.1
A5G A95U A116U | 0.1
